According to the supplement of paper PMC11741623:
The other results are listed elsewhere or left out. Interaction screen of human proteins with wild-type SARS-CoV-2 proteins by split-DHFR complementation in yeast, 1 µg/mL methotrexate. Value = fitness of the pair (three or more lineages) minus that of the viral protein without a human partner, on a scale set by negative (0) and fused positive (1) controls, mean of up to three cultures; higher = more likely to interact. Active = false discovery rate below 0.05 (one-sided t-test) in at least one culture. Nearly all pairs are not hits, and differences among them are mostly noise (correlation between cultures about 0.3); most hits were seen in one culture only. Human sequences are the Swiss-Prot entries looked up by gene name; the clone may be another isoform. NSP2 values were corrected by the authors for a growth advantage. Listed are human proteins with a hit and a random twelfth of the others.

How the values were obtained:
Test in all cases: yeast fitness gain over the viral ORF with no human partner (scaled fitness); higher = more likely to interact
[1] = target: SARS-CoV-2 M
Procedure: (§1)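 Split mouse DHFR complementation in pooled diploid yeast: human ORFeome clones carry one fragment and viral ORFs the other; barcoded lineages compete in 1 µg/mL methotrexate and fitness is read by barcode sequencing in up to three cultures.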

[2] = target: SARS-CoV-2 NSP15
Procedure: as §1

[3] = target: SARS-CoV-2 NSP16
Procedure: as §1

[4] = target: SARS-CoV-2 NSP7
Procedure: as §1

[5] = target: SARS-CoV-2 NSP8
Procedure: as §1

[6] = target: SARS-CoV-2 ORF3A
Procedure: as §1

[7] = target: SARS-CoV-2 ORF7A
Procedure: as §1

[8] = target: SARS-CoV-2 ORF9Bwu (the 73-codon ORF)
Procedure: as §1

[9] = target: SARS-CoV-2 N
Procedure: as §1

[10] = target: SARS-CoV-2 NSP12
Procedure: as §1

[11] = target: SARS-CoV-2 NSP13
Procedure: as §1

[12] = target: SARS-CoV-2 NSP14
Procedure: as §1

[13] = target: SARS-CoV-2 NSP2
Procedure: as §1

[14] = target: SARS-CoV-2 NSP4
Procedure: as §1

[15] = target: SARS-CoV-2 NSP5
Procedure: as §1

[16] = target: SARS-CoV-2 NSP6
Procedure: as §1

[17] = target: SARS-CoV-2 ORF10
Procedure: as §1

[18] = target: SARS-CoV-2 ORF3B
Procedure: as §1

[19] = target: SARS-CoV-2 ORF6
Procedure: as §1

[20] = target: SARS-CoV-2 ORF7B
Procedure: as §1

[21] = target: SARS-CoV-2 ORF8
Procedure: as §1

[22] = target: SARS-CoV-2 ORF9B
Procedure: as §1

[23] = target: SARS-CoV-2 S
Procedure: as §1

[24] = target: SARS-CoV-2 NSP10
Procedure: as §1

[25] = target: SARS-CoV-2 NSP1
Procedure: as §1

[26] = target: SARS-CoV-2 NSP9
Procedure: as §1

Measured: yeast fitness gain

B1: TRIM39, Q9HCM9 (protein)
chain: MAETSLLEAGASAASTAAALENLQVEASCSVCLEYLKEPVIIECGHNFCKACITRWWEDLERDFPCPVCRKTSRYRSLRPNRQLGSMVEIAKQLQAVKRKIRDESLCPQHHEALSLFCYEDQEAVCLICAISHTHRAHTVVPLDDATQEYKEKLQKCLEPLEQKLQEITRCKSSEEKKPGELKRLVESRRQQILREFEELHRRLDEEQQVLLSRLEEEEQDILQRLRENAAHLGDKRRDLAHLAAEVEGKCLQSGFEMLKDVKSTLEKNIPRKFGGSLSTICPRDHKALLGLVKEINRCEKVKTMEVTSVSIELEKNFSNFPRQYFALRKILKQLIADVTLDPETAHPNLVLSEDRKSVKFVETRLRDLPDTPRRFTFYPCVLATEGFTSGRHYWEVEVGDKTHWAVGVCRDSVSRKGELTPLPETGYWRVRLWNGDKYAATTTPFTPLHIKVKPKRVGIFLDYEAGTLSFYNVTDRSHIYTFTDTFTEKLWPLFYPGIRAGRKNAAPLTIRPPTDWE
inactive: [1] -0.00245 | [2] 0.0118 | [3] -0.0748 | [4] -0.131 | [5] -0.0144 | [6] -0.17 | [7] -0.0618 | [8] -0.00321

B2: FIBP, O43427 (protein)
chain: MTSELDIFVGNTTLIDEDVYRLWLDGYSVTDAVALRVRSGILEQTGATAAVLQSDTMDHYRTFHMLERLLHAPPKLLHQLIFQIPPSRQALLIERYYAFDEAFVREVLGKKLSKGTKKDLDDISTKTGITLKSCRRQFDNFKRVFKVVEEMRGSLVDNIQQHFLLSDRLARDYAAIVFFANNRFETGKKKLQYLSFGDFAFCAELMIQNWTLGAVGEAPTDPDSQMDDMDMDLDKEFLQDLKELKVLVADKDLLDLHKSLVCTALRGKLGVFSEMEANFKNLSRGLVNVAAKLTHNKDVRDLFVDLVEKFVEPCRSDHWPLSDVRFFLNQYSASVHSLDGFRHQALWDRYMGTLRGCLLRLYHD
inactive: [1] 0.0251 | [9] 0.0349 | [10] -0.0433 | [11] 0.00923 | [12] -0.102 | [2] 0.0779 | [13] -0.16 | [14] -0.041 | [15] 0.101 | [16] -0.168 | [4] -0.0327 | [5] -0.0572 | [17] 0.0527 | [18] 0.0947 | [19] 0.0406 | [7] 0.074 | [20] 0.103 | [21] 0.0113 | [22] 0.0249 | [8] 0.127 | [23] 0.0856

B3: SPIN2B, Q9BPZ2 (protein)
chain: MKTPNAQEAEGQQTRAAAGRATGSANMTKKKVSQKKQRGRPSSQPRRNIVGCRISHGWKEGDEPITQWKGTVLDQVPINPSLYLVKYDGIDCVYGLELHRDERVLSLKILSDRVASSHISDANLANTIIGKAVEHMFEGEHGSKDEWRGMVLAQAPIMKAWFYITYEKDPVLYMYQLLDDYKEGDLRIMPESSESPPTEREPGGVVDGLIGKHVEYTKEDGSKRIGMVIHQVEAKPSVYFIKFDDDFHIYVYDLVKKS
inactive: [1] -0.0331 | [10] 0.0767 | [11] -0.0429 | [3] -0.0561 | [19] -0.141 | [22] 0.0836

B4: S100A13, Q99584 (protein)
chain: MAAEPLTELEESIETVVTTFFTFARQEGRKDSLSVNEFKELVTQQLPHLLKDVGSLDEKMKSLDVNQDSELKFNEYWRLIGELAKEIRKKKDLKIRKK
inactive: [1] -0.0219 | [9] -0.081 | [24] -0.0072 | [10] -0.236 | [11] -0.0303 | [3] 0.0592 | [13] 0.0393 | [15] -0.0501 | [4] -0.123 | [5] -0.0401 | [17] 0.0138 | [18] 0.0808 | [19] -0.0193 | [7] 0.0202 | [20] 0.102 | [21] -0.0397 | [22] -0.0795 | [8] 0.0627 | [23] -0.0758

B5: E4F1, Q66K89 (protein)
chain: MEGAMAVRVTAAHTAEAQAEAGREAGEGAVAAVAAALAPSGFLGLPAPFSEEDEDDVHRCGRCQAEFTALEDFVQHKIQKACQRAPPEALPATPATTALLGQEVVPAAPGPEEPITVAHIVVEAASLAADISHASDLVGGGHIKEVIVAAEAELGDGEMAEAPGSPRQQGLGLAGEGEQAQVKLLVNKDGRYVCALCHKTFKTGSILKAHMVTHSSRKDHECKLCGASFRTKGSLIRHHRRHTDERPYKCSKCGKSFRESGALTRHLKSLTPCTEKIRFSVSKDVVVSKEDARAGSGAGAAGLGTATSSVTGEPIETSPVIHLVTDAKGTVIHEVHVQMQELSLGMKALAPEPPVSQELPCSSEGSRENLLHQAMQNSGIVLERAAGEEGALEPAPAAGSSPQPLAVAAPQLPVLEVQPLETQVASEASAVPRTHPCPQCSETFPTAATLEAHKRGHTGPRPFACAQCGKAFPKAYLLKKHQEVHVRERRFRCGDCGKLYKTIAHVRGHRRVHSDERPYPCPKCGKRYKTKNAQQVHFRTHLEEKPHVCQFCSRGFREKGSLVRHVRHHTGEKPFKCYKCGRGFAEHGTLNRHLRTKGGCLLEVEELLVSEDSPAAATTVLTEDPHTVLVEFSSVVADTQEYIIEATADDAETSEATEIIEGTQTEVDSHIMKVVQQIVHQASAGHQIIVQNVTMDEETALGPEAAAADTITIATPESLTEQVAMTLASAISEGTVLAARAGTSGTEQATVTMVSSEDIEILEHAGELVIASPEGQLEVQTVIV
inactive: [1] 0.00969 | [25] 0.00343 | [24] 0.0449 | [10] -0.0168 | [11] 0.0109 | [12] 0.0825 | [2] 0.0157 | [3] -0.0337 | [13] -0.175 | [15] -0.0441 | [16] -0.0421 | [4] 0.0576 | [5] 0.0639 | [26] -0.0276 | [17] -0.0708 | [6] -0.0498 | [18] 0.0772 | [19] 0.00811 | [7] 0.0673 | [20] 0.0738 | [21] -0.0985 | [22] 0.00927 | [8] -0.174 | [23] -0.0978
